Laboratory results reported in PubChem BioAssay AID1961 (Sanford-Burnham Center for Chemical Genomics, 2009).
Values joined by “and” are separate entries in the source; they are usually repeats but may differ in a detail not shown here. Identical values can stand only once. Among all 290,000 compounds or so, about 140 (0.048%) were called active. Inconclusive means that the source gave no clear call. Such entries were picked first, then a sample of the others.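 The calls were made as follows: active = activation above 40% with more than 50 cells counted in the well; inconclusive = wells holding fewer than 50 cells, flagged as toxic or sparse; inactive = the rest.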

biological target: G-protein coupled receptor 55 (Homo sapiens) (UniProt Q9Y2T6); experiment: selective activators of receptor GPR55 – imaging, U2OS cells, beta-arrestin-GFP redistribution, primary screen (AID 1961); details: at 10 µM, stronger effect = higher value;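 also: U2OS osteosarcoma cells stably expressing GPR55 and beta-arrestin-GFP; plate controls were DMSO negative control for no effect and LPI positive control for full effect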
UniProt Q9Y2T6, sequence (Q9Y2T6 whole entry, looked up): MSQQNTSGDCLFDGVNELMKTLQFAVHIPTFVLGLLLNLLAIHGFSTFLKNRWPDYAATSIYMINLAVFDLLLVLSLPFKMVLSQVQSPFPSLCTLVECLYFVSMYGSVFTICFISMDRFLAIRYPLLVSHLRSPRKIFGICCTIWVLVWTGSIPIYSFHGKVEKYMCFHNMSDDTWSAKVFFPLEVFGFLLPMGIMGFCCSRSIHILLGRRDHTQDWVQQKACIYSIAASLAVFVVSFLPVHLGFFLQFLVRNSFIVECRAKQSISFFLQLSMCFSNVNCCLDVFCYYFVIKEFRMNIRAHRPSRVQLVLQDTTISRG

| Structure (SMILES) | activation |
| --- | --- |
| O=C(CNC(=O)c1ccc(N2C(=O)c3ccccc3C2=O)cc1)OCC(=O)c1cccc2ccccc12 | inactive: 0% |
| CCOC(=O)c1sc(NC(=O)C2CCC2)cc1C | inconclusive: 10.1% |
| Cc1cccc(C)c1NC(=O)C(=O)NCCCN1CCOCC1 | inconclusive: 23.7% |
| Cc1ccc(N2CCN(S(=O)(=O)c3ccc4oc(=O)ccc4c3)CC2)c(C)c1 | inconclusive: 0% |
| Cc1c(C(=O)N/N=C/c2cccs2)nc2ccccn12 | inconclusive: -0.1% |
| CC(C)(C)NC(=O)CSc1nncn1NCc1c(Cl)cccc1Cl | inactive: -0.2% |
| Cc1cccc(N(CC(=O)Nc2c(C)n(C)n(-c3ccccc3)c2=O)S(C)(=O)=O)c1C | inactive: 0% |
| COC(=O)c1cccc(NC(=O)/C=C/c2ccc([N+](=O)[O-])cc2)c1 | inconclusive: -0.2% |
| CC(=O)Nc1ccc(N=Cc2ccc(OCc3ccccc3)cc2)cc1 | inconclusive: -0.2% |
| Cc1nc2[nH]c(=S)n(C)c(=O)c2nc1C | inconclusive: -0.5% |
| CC1CCC(C(C)C)C(OC(=O)Cn2c(-c3ccc(Br)cc3)[n+](C)c3ccccc32)C1 (stereo not drawn) | active: 103% and active: 106% |
| Cc1nc(SCC(=O)NC(=O)NCCC(C)C)c2c(-c3cccs3)csc2n1 | inconclusive: -0.1% |
| O=C(c1ccc2c(c1)OCO2)N1CCc2ccccc21 | inconclusive: 0% |
| O=C(Nc1ccccc1C(=O)O)c1cc(S(=O)(=O)NCc2ccccc2)ccc1Cl | inconclusive: 0% |
| CCOc1ccc(OCCOCCN2CCOCC2)cc1 | inactive: -0.1% |
| CCc1nnc2n1N=C(c1ccc(Cl)cc1Cl)CS2 | inactive: -0.1% |
| COCCCNC1CS(=O)(=O)CC1O (stereo not drawn) | inconclusive: -1.9% |
| Cc1cc(C)c(C)c(N=Nc2nc3ccccc3n2C)c1C | inconclusive: -0.2% |
| CCCCOc1ccc(C2C(C(=O)c3ccc(C)o3)=C(O)C(=O)N2CC2CCCO2)cc1 (stereo not drawn) | inconclusive: -0.2% |
| C=CCOc1ccc(CNc2ccc(NC(=O)CC(C)C)cc2)cc1OC | inconclusive: -0.5% |
| Cc1ccc(C(=O)NC2(C(F)(F)F)NC(=O)N(c3ccc(Cl)cc3)C2=O)cc1 (stereo not drawn) | inactive: -0.3% |
| Nc1c(-c2ccccc2)c(CSc2nc3ccccc3[nH]2)nn1-c1ccc(C(=O)O)cc1 | inactive: -0.2% |

| Structure (SMILES) | activation |
| --- | --- |
| COCCn1c(SCC(=O)N2CC(=O)Nc3ccccc32)nc2ccccc21 | inconclusive: -0.1% |
| CC1S/C(=N/N=C2CCC(C(C)(C)C)CC2)NC1=O (stereo not drawn) | inconclusive: -0.2% |
| CC(C)OCC(O)Cn1c(N2CCCC2)nc2c1c(=O)[nH]c(=O)n2C (stereo not drawn) | inactive: -0.2% |
| COc1ccccc1Cc1noc(COc2cccc(C)c2C)n1 | inactive: -0.1% |
| Cc1cc(N2CCN(C)CC2)nc2ccc(NC(=S)N3CCN(c4ccc(Cl)cc4)CC3)cc12 | inconclusive: 20.2% |
| Cc1cc(C)nc(Sc2nc(Nc3ccccc3)nc(Sc3nc(C)cc(C)n3)n2)n1 | inconclusive: -0.2% |
| COc1cccc(C2/C(=C(\O)c3ccc4c(c3)OCCO4)C(=O)C(=O)N2CC2CCCO2)c1 (stereo not drawn) | inactive: 0.2% |
| O=C(COC(=O)c1ccccc1Sc1ccc(C(F)(F)F)cc1[N+](=O)[O-])NC(=O)NC1CCCC1 | inconclusive: -0.2% |
| Cc1nc(/N=C(\N)Nc2ccccc2)nc2ccccc12 | inconclusive: 0% |
| COc1ccc(S(=O)(=O)N2CCOC2CNC(=O)C(=O)NCCCN2CCOCC2)cc1C (stereo not drawn) | inconclusive: 0% |
| O=C(N/C(=C/c1ccc(F)cc1)C(=O)N1CCCC1)c1ccccc1 | inconclusive: 0% |
| CC(C)c1ccc(/C=C/C(=O)NC2=NCCS2)cc1 | inactive: 0% |
| O=[N+]([O-])c1ccc(N/N=C/c2sc(N3CCOCC3)nc2-c2ccccc2)c(S(=O)(=O)Nc2ccc(Cl)cc2)c1 | inactive: 18% |
| c1ccc(-c2cnn3nnnc3n2)cc1 | inactive: 0.2% |
| CC(=O)Nc1ccc(NC(=O)C2CC(=O)N(c3cccc(Cl)c3)C2)cc1 (stereo not drawn) | inconclusive: -0.2% |
| CC(=O)Nc1nc(SCC(=O)Nc2nnc(C)s2)[nH]c(=O)c1NC(=O)c1cccs1 | inactive: 0.7% |
| O=C(CSc1nc2ccccc2c(=O)n1CCCO)N1CCc2ccccc21 | inconclusive: -0.1% |
| c1ccc(-c2csc(=Nc3cccnc3)n2CC2CCCO2)cc1 (stereo not drawn) | inconclusive: -0.2% |
| COc1cccc(NS(=O)(=O)c2ccc3c(c2)NC(=O)C(C)C(=O)N3)c1 (stereo not drawn) | inactive: -0.1% |
| COCCNC(=S)N/N=C/c1ccc(OCc2ccc(C(=O)OC)cc2)cc1 | inconclusive: -0.1% |
| CCCCSc1nnc2n(CCc3ccccc3)c(=O)c3c4c(sc3n12)COC(C)(C)C4 | active: 58% |
| CCC(C)c1ccc(N(C(=O)c2ccco2)C(C(=O)NC2CCCC2)c2cccnc2)cc1 (stereo not drawn) | inconclusive: 8% |

| Structure (SMILES) | activation |
| --- | --- |
| CCN1CCN(CCCNC(=O)CCC(=O)N2CC(C)Oc3ccc(C)cc32)CC1 (stereo not drawn) | inconclusive: -0.1% |
| O=C(NC1CC1)c1nc(Cn2ccc([N+](=O)[O-])n2)no1 | inconclusive: 0% |
| C[C@@H](CN1C2=NC[C@H](Cc3ccc(O)cc3)N2C[C@H]1Cc1ccc(O)cc1)NC(=O)CCC1CCCCC1 | inconclusive: -0.1% |
| O=C(Nc1ccc(S(=O)(=O)N2CCCC2)cc1)C1CC(=O)N(c2ccc(F)cc2)C1 (stereo not drawn) | inconclusive: 0% |
| Cc1ccc(S(=O)(=O)N2CC(O)CC2C(=O)O)cc1 (stereo not drawn) | inconclusive: -0.2% |
| CSCCC(NC(=O)c1ccc([N+](=O)[O-])cc1Cl)C(=O)OCC(=O)N(C)C (stereo not drawn) | inconclusive: -0.1% |
| Cc1ccc(NC(=S)Nc2ccc(S(=O)(=O)Nc3ncccn3)cc2)c(C)c1 | inactive: -0.2% |
| CC(C)(C)NC(=O)COC(=O)c1cc(Br)ccc1Cl | inactive: -0.3% |
| Cc1cccc(C(=O)N2CCN(S(=O)(=O)N3CCCCCC3)CC2)c1 | inconclusive: 0% |
| CCc1ccc(C(=O)Nc2ccc(S(=O)(=O)Nc3nc(C)cc(C)n3)cc2)o1 | inconclusive: -0.2% |
| COc1cc(OC)cc(C(=O)N2CCN(c3ccccc3F)CC2)c1 | inactive: -0.2% |
| Cc1ccc(NC(=O)c2ccc3c(c2)OCCO3)cc1S(=O)(=O)Nc1cccc(Cl)c1 | inconclusive: -0.1% |
| NNC(=O)c1ccc(COc2ccccc2)cc1 | inconclusive: -0.1% |
| C/C(=N\NC(=O)COc1ccc(C)cc1C(C)C)c1cc2ccccc2o1 | inconclusive: -0.1% |
| CCCN1C(=O)/C(=C2/C=Cc3ccccc3N2CC)SC1=S | inactive: -0.4% |
| Cc1cccc(CC(=O)N2CCOCC2)c1 | inactive: 1.4% |
| O=C(Nc1cccc(Cl)c1N1CCCCC1)c1ccc2c(c1)OCCO2 | inconclusive: -0.2% |
| COc1ccc(C(NC(=O)c2ccc(F)cc2)c2ccccc2)cc1 (stereo not drawn) | inconclusive: -0.3% |
| COc1ccc2nc(C)cc(SCC(=O)N/N=C/c3ccco3)c2c1 | inactive: 0.2% |
| COc1ccc(N2CC(C(=O)Nc3nnc(Cc4ccccc4)s3)CC2=O)cc1 (stereo not drawn) | inconclusive: 0% |
| COc1ccccc1C(=O)NC(=S)/C=C1/N(C)c2ccccc2C1(C)C | active: 91% |
| O=C(COc1ccccc1)NC1C(=O)N2C(C(=O)O)=C(Cl)CSC12 (stereo not drawn) | inconclusive: -0.1% |

| Structure (SMILES) | activation |
| --- | --- |
| O=C(CN(C(=O)CNS(=O)(=O)c1ccccc1)c1ccc(Cl)cc1)NCC1CCCO1 (stereo not drawn) | inconclusive: -0.1% |
| COC(=O)c1ccc(C)c(NC(=O)CCc2ccc(OC)cc2)c1 | inconclusive: -0.2% |
| COc1ccc(NC(=O)C(OC(=O)c2ccc([N+](=O)[O-])o2)c2ccccc2)cc1Cl (stereo not drawn) | inconclusive: -0.2% |
| Cc1cc(Cl)ccc1OCc1nc(-c2ccncc2)no1 | inconclusive: -0.3% |
| CC(=O)OC1COC(OC2C(O)C(C)OC(OC3C(OC4CCC5(C)C(CCC6(C)C5CC=C5C7CC(C)(C)CCC7(C(=O)O)CCC56C)C4(C)CO)OCC(O)C3O)C2O)C(O)C1OC(C)=O (stereo not drawn) | inconclusive: 5.9% |
| O=C(COc1ccc2c(c1)OCO2)Nc1cccc(F)c1 | inconclusive: 0% |
| CCOc1ccc2nc(SCC(=O)N3CCCCCC3)c(C#N)cc2c1 | inactive: -0.1% |
| COc1ccccc1N1CCN(C2CCN(C(=O)COc3ccccc3)CC2)CC1 | inactive: -0.1% |
| CCN1C(=O)C(F)(CC)C(=O)c2ccccc21 (stereo not drawn) | inconclusive: -0.3% |
| CCn1ccnc1CN1CCN(CC=C(C)C)C(CCO)C1 (stereo not drawn) | inconclusive: -0.2% |
| O=C(NCC1CCCO1)C(c1cccs1)N(Cc1ccccc1)C(=O)c1ccc(-c2ccccc2)[nH]1 (stereo not drawn) | inconclusive: -0.2% |
| COc1ccccc1C(=O)Nc1ccc2c(c1)nc(CCNC(=O)c1ccco1)n2C | inconclusive: 0% |
| CCCCCCCCCCOC(=O)Cn1c(COc2ccccc2C)[n+](C)c2ccccc21 | inactive: 17.1% |
| CSc1ccc(NC(=O)CC(C)=O)cc1 | inconclusive: -0.1% |
| Cc1nnc(SC(C)C)n(N)c1=O | inactive: -1.1% |
| Cc1cccc(NC(=S)NCCN2CCOCC2)c1C | inconclusive: -0.2% |
| O=C(Nc1ccc(S(=O)(=O)N2CCCCC2)cc1)C1CCCCC1 | inconclusive: 0% |
| Cc1nnnn1/C(=C\c1ccccc1)C(=O)OCC(=O)N(C)C1CCS(=O)(=O)C1 (stereo not drawn) | inactive: -0.4% |
| CCOc1ccc2nc(SCC(=O)N3c4ccccc4Sc4ccccc43)c(C#N)cc2c1 | active: 112% |
| Cn1c(CNC(=O)c2ccco2)nnc1SCC(=O)N1CCN(c2ccccc2F)CC1 | inconclusive: 0% |
| CCN1CCCC1Cn1cnc2c([nH]c3ccc(Cl)cc32)c1=O (stereo not drawn) | inconclusive: -0.2% |
| CCOc1ccc(/C=C/C(=O)C(C(N)=O)=C2SCCS2)cc1 | inconclusive: -0.1% |
